Results published in the antibiotic and cytotoxicity screens of Wong et al. (2023).
The list shows a part of the results.

test system: S. aureus RN4220; experiment: growth inhibition call (relative growth <= 0.2); conditions: 50 µM

Growth inhibition call, inactive:
CO[C@@H]1CN(C)C(=O)c2ccc(NC(=O)Nc3cccc(F)c3)cc2OC[C@H](C)N(C(=O)Nc2c(C)noc2C)C[C@H]1C
Nc1ccc(OCc2ccccc2)cc1
C[C@@H]1CCCCO[C@H](CN(C)C(=O)CCC(F)(F)F)[C@H](C)CN([C@@H](C)CO)C(=O)c2cc(NC(=O)NC3CCCCC3)ccc2O1
CC(C)NC(=O)Nc1ccc2c(c1)C(=O)N([C@H](C)CO)C[C@@H](C)[C@H](CN(C)Cc1ccc(C(F)(F)F)cc1)OCCCC[C@@H](C)O2
Cc1noc(C)c1NC(=O)N[C@H]1C=C[C@@H](CC(=O)NCCCN(C)C)O[C@@H]1CO
COc1ccc(S(=O)(=O)Nc2ccc3c(c2)C(=O)N([C@H](C)CO)C[C@@H](C)[C@H](CN(C)S(=O)(=O)c2ccc(C)cc2)O3)cc1
C[C@@H]1CCCCO[C@@H](CN(C)Cc2ccc(C(=O)O)cc2)[C@H](C)CN([C@@H](C)CO)C(=O)c2cc(NS(=O)(=O)c3ccc(Cl)cc3)ccc2O1
C[C@H](CO)N1C[C@H](C)[C@@H](CN(C)C(=O)NC2CCCCC2)OCCCC[C@H](C)Oc2ccc(NC(=O)Nc3ccc(C(F)(F)F)cc3)cc2C1=O
O=C(C[C@@H]1CC[C@H]2[C@@H](COC[C@H](O)CN2S(=O)(=O)c2cccc(F)c2)O1)NCc1ccncn1
O=C(Nc1ccc2c(c1)[C@@H]1C[C@@H](CC(=O)N3CCc4ccccc4C3)O[C@@H](CO)[C@@H]1O2)C1CCOCC1
Cc1nc2n(c(=O)c1CCN1CCC(c3noc4cc(F)ccc34)CC1)CCCC2O (stereo not given)
C[C@H]1CN([C@@H](C)CO)C(=O)Cc2cc(NS(=O)(=O)c3cn(C)cn3)ccc2O[C@H]1CN(C)CC1CCCCC1
O=C(C[C@@H]1C[C@H]2c3cc(NC(=O)c4cccnc4)ccc3O[C@H]2[C@H](CO)O1)NCc1cc(F)ccc1F
COc1ccc(S(=O)(=O)Nc2ccc3c(c2)C(=O)N([C@@H](C)CO)C[C@H](C)[C@@H](CN(C)C(=O)Nc2c(C)noc2C)OCCCC[C@H](C)O3)cc1
C[C@H](CO)N1C[C@H](C)[C@H](CN(C)C(=O)Nc2cccc3ccccc23)Oc2ncc(C#Cc3ccccc3)cc2C1=O
CN(C=O)CP(=O)(O)CN1CCCCC1
C[C@H]1CN([C@@H](C)CO)C(=O)c2cc(C#Cc3ccccc3F)cnc2O[C@@H]1CN(C)S(=O)(=O)c1ccccc1
Cc1ccc2c(Br)cc(Br)c(OC(=O)c3ccccc3)c2n1
C[C@@H]1CCCCO[C@@H](CN(C)Cc2ccc(C(F)(F)F)cc2)[C@@H](C)CN([C@@H](C)CO)C(=O)c2cc(NS(=O)(=O)c3cn(C)cn3)ccc2O1
COCC(=O)Nc1ccc2c(c1)C(=O)N(C)C[C@@H](OC)[C@H](C)CN(Cc1ccccc1F)[C@H](C)CO2
CC(=O)O[C@H](CC(=O)O)C[N+](C)(C)C
C[C@@H]1CN([C@H](C)CO)C(=O)c2cc(NS(=O)(=O)c3cn(C)cn3)ccc2O[C@@H](C)CCCCO[C@H]1CN(C)S(=O)(=O)c1ccccc1
COc1ccc(C=CC(=O)c2ccccc2)cc1
COc1cc(OC)cc(C(=O)OCCCNCCNCCCOC(=O)c2cc(OC)cc(OC)c2)c1
Cc1noc(C)c1S(=O)(=O)N(C)C[C@@H]1Oc2ccc(NS(=O)(=O)c3ccc(F)cc3)cc2C(=O)N([C@H](C)CO)C[C@@H]1C
C[C@@H]1CCCCO[C@H](CN(C)C(=O)NC2CCCCC2)[C@H](C)CN([C@@H](C)CO)C(=O)c2cc(NC(=O)c3ccncc3)ccc2O1
Cc1noc(C)c1NC(=O)Nc1ccc2c(c1)C(=O)N([C@@H](C)CO)C[C@@H](C)[C@@H](CN(C)Cc1ccc(Cl)c(Cl)c1)OCCCC[C@@H](C)O2
CC(C)NC(=O)N1Cc2cc(C(=O)NCC(F)(F)F)nc(-c3cccc(-c4cc5ccccc5o4)c3)c2[C@H]1CCO
C[C@@H]1CCCCO[C@H](CN(C)Cc2ccc(C(=O)Nc3ccccc3N)cc2)[C@@H](C)CN([C@H](C)CO)C(=O)c2cc(NS(=O)(=O)c3ccc(F)cc3)ccc2O1
COCCNC(=O)C[C@H]1CC[C@@H]2[C@H](COC[C@H](O)CN2C(=O)Nc2ccc3c(c2)OCO3)O1
C[C@@H]1CN([C@H](C)CO)C(=O)c2cccc(NC(=O)CCCCCC(=O)Nc3ccccc3N)c2O[C@H]1CN(C)C(=O)Nc1ccc(C(F)(F)F)cc1
COc1ccc2cc(-c3cc(-c4cc(Cl)cc(Cl)c4)nn3[C@@H](C)c3ccc(C(=O)NCCC(=O)O)cc3)ccc2c1
C[C@@H]1CN([C@@H](C)CO)C(=O)c2cc(NC(=O)Cc3ccccc3)ccc2O[C@H]1CN(C)S(C)(=O)=O
CC(C)NC(=O)N[C@@H]1C=C[C@H](CC(=O)NCCCN(C)C)O[C@H]1CO
O=C(NOC[C@H](O)CO)c1cc(Br)c(F)c(F)c1Nc1ccc(I)cc1F
c1ccc2c([C@@H]3CCCN3)cccc2c1
COc1ccc(S(=O)(=O)Nc2cccc3c2O[C@H](CN(C)S(=O)(=O)c2c(C)noc2C)[C@@H](C)CN([C@H](C)CO)C3=O)cc1
Nc1nc(N2CCC[C@@H](Cn3cc(CO)nn3)C2)c2c[nH]nc2n1
C[C@H]1CN([C@@H](C)CO)C(=O)Cc2cc(NS(=O)(=O)c3cn(C)cn3)ccc2O[C@@H]1CN(C)S(=O)(=O)c1cccs1

Growth inhibition call, active:
C[C@@H]1CN([C@@H](C)CO)S(=O)(=O)c2ccc(C#Cc3ccccc3)cc2O[C@@H]1CN(C)C(=O)CN(C)C
